Laboratory results as given in the supplement of paper PMC3334620.
Whole data set: some 33,000 sequences, median “E-score (-0.5 to 0.5)” near -0.04, cut for the highest 2% near 0.36. The list shows a part of the results.

Each sequence was assayed against T1, Hmlalpha2 (UniProt P0CY09) (assay: PBM E-score (8-mer binding enrichment) (E-score (-0.5 to 0.5)); higher = stronger / more preferred TF binding; most listed sequences are background and not binding sites). Conditions: protein concentration: 200 nM; construct: GST-full length.
T1 sequence: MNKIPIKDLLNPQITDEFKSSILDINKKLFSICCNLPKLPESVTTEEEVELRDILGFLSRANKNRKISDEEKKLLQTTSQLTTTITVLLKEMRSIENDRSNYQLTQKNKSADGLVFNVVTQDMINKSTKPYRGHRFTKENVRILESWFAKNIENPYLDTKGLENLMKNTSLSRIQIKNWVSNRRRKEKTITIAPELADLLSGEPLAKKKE
Summary of the method: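 Masliner-normalised scans of fluorescent anti-GST signal were the basis for scoring. That signal came from GST-tagged yeast transcription factors applied at about 100-200 nM to double-stranded universal all-10-mer Agilent arrays on fresh or once-stripped slides. Each ungapped eight-base word, pooled with its reverse complement, received an E-score from the Universal PBM Analysis Suite.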
With ATCGGGGC the “PBM E-score” value was -0.175.
For ACTCTCCC, the “PBM E-score” value was -0.283.
In the case of AATAGACT, the “PBM E-score” value was -0.106.
For TCGGCAAA, the “PBM E-score” value was -0.138.
For GAGCGATC, the “PBM E-score” value was -0.195.
For ATCGCACG, the “PBM E-score” value was -0.00999.
With GACATAGC the “PBM E-score” value was 0.223.
AAGCGCGA was tested, and the “PBM E-score” value was 0.0244.
For ATCAGTTG, the “PBM E-score” value was 0.105.
For CGACCAGA, the “PBM E-score” value was -0.142.
GATCTTGC was tested, and the “PBM E-score” value was -0.0142.
CTTCCATC was tested, and the “PBM E-score” value was -0.272.
With GACGAAGC the “PBM E-score” value was -0.0232.
For GGAACGAC, the “PBM E-score” value was 0.0513.
CGTCCGAC was tested, and the “PBM E-score” value was -0.085.
With CATCCCCC the “PBM E-score” value was -0.376.
ATATAGTA was tested, and the “PBM E-score” value was 0.225.
CTAATAGA was tested, and the “PBM E-score” value was -0.0104.
In the case of GCCGCGAA, the “PBM E-score” value was -0.281.
With ACCAGGAG the “PBM E-score” value was -0.152.
With AAGTAGAA the “PBM E-score” value was 0.0823.
In the case of ACAAGACC, the “PBM E-score” value was 0.149.
CTCGAAGC was tested, and the “PBM E-score” value was -0.123.
With CGAAATAG the “PBM E-score” value was 0.0467.
With AGAGGTAC the “PBM E-score” value was -0.201.
In the case of CTCATAAG, the “PBM E-score” value was -0.177.
TCTGCGCA was tested, and the “PBM E-score” value was -0.00074.
With AATTCCTC the “PBM E-score” value was -0.0947.
For CCTATATC, the “PBM E-score” value was -0.117.
With GTCGTGGA the “PBM E-score” value was -0.154.
With ACATGAGT the “PBM E-score” value was 0.364.
In the case of GATTTTAC, the “PBM E-score” value was 0.218.
With ACTTGAGC the “PBM E-score” value was -0.191.
For GCAAGCGA, the “PBM E-score” value was 0.0703.
For AACCAAGA, the “PBM E-score” value was 0.14.
AAGGGATA was tested, and the “PBM E-score” value was 0.0872.
CGACAACC was tested, and the “PBM E-score” value was -0.0325.
In the case of CAGCTCGC, the “PBM E-score” value was -0.145.
For AAAGAGCT, the “PBM E-score” value was -0.0941.
In the case of AGTTGAAT, the “PBM E-score” value was 0.137.
AATTTCTC was tested, and the “PBM E-score” value was -0.0474.
For TCCACCAA, the “PBM E-score” value was -0.0847.
CTGAAAGC was tested, and the “PBM E-score” value was 0.00068.
With ATGGACTG the “PBM E-score” value was -0.108.
With AGCTATAG the “PBM E-score” value was -0.191.
With CGACTACA the “PBM E-score” value was 0.201.
In the case of AGCAAAGA, the “PBM E-score” value was -0.164.
For GGGGGTAC, the “PBM E-score” value was -0.238.
AGGACCGC was tested, and the “PBM E-score” value was -0.0857.
For GAAATTTC, the “PBM E-score” value was -0.375.
With GAGTACTA the “PBM E-score” value was 0.154.
In the case of CGTGCGCC, the “PBM E-score” value was -0.0965.
With ATGTGCGA the “PBM E-score” value was -0.155.
For GCGGATAC, the “PBM E-score” value was 0.201.
With ATGGCGGA the “PBM E-score” value was -0.254.
In the case of CACCAAGA, the “PBM E-score” value was 0.0145.
In the case of ATTGGTCC, the “PBM E-score” value was 0.0463.
For AACGTTGG, the “PBM E-score” value was 0.178.
For AGGAGACT, the “PBM E-score” value was -0.134.
CACGCTCA was tested, and the “PBM E-score” value was 0.117.
In the case of AGTGGCAA, the “PBM E-score” value was -0.127.
With AACCCTCC the “PBM E-score” value was -0.188.
In the case of ATAAGTCG, the “PBM E-score” value was -0.13.
CTAAAGGA was tested, and the “PBM E-score” value was -0.0463.
In the case of GGGTAGGA, the “PBM E-score” value was -0.0133.
In the case of CTCCACAA, the “PBM E-score” value was -0.0113.
CCGAACGG was tested, and the “PBM E-score” value was -0.135.
With GCCCAAAA the “PBM E-score” value was 0.0822.
In the case of ATTTTTTG, the “PBM E-score” value was 0.0078.
In the case of CAATACTA, the “PBM E-score” value was -0.0143.
CAGTCATG was tested, and the “PBM E-score” value was -0.0959.
AACGACTT was tested, and the “PBM E-score” value was -0.0591.
With CTTAGAAG the “PBM E-score” value was -0.147.
CCCGGGTA was tested, and the “PBM E-score” value was -0.0123.
AAACGTTG was tested, and the “PBM E-score” value was -0.0261.
With AGCATCGC the “PBM E-score” value was -0.231.
With GACTCCTA the “PBM E-score” value was -0.133.
In the case of AGCGTATG, the “PBM E-score” value was 0.0798.
With CATTCTAC the “PBM E-score” value was 0.166.
For ACGTCGTG, the “PBM E-score” value was 0.157.
With CCCCACAG the “PBM E-score” value was -0.117.
GATCTACC was tested, and the “PBM E-score” value was -0.0792.
In the case of ACCGTGCG, the “PBM E-score” value was 0.0863.
With CGGCTTAA the “PBM E-score” value was 0.0109.
AACATACA was tested, and the “PBM E-score” value was 0.368.
AGCAATAG was tested, and the “PBM E-score” value was -0.138.
In the case of GTTCCTCA, the “PBM E-score” value was -0.0802.
In the case of GTAGGCAA, the “PBM E-score” value was 0.0201.
AGAGGCTA was tested, and the “PBM E-score” value was -0.207.
In the case of AGTTTCCA, the “PBM E-score” value was -0.0278.
With ATTGCTGG the “PBM E-score” value was -0.164.
CTATGGAC was tested, and the “PBM E-score” value was -0.125.
In the case of TATCCACA, the “PBM E-score” value was -0.0396.
In the case of ACGTCTTG, the “PBM E-score” value was 0.0645.
In the case of CGTAGCTA, the “PBM E-score” value was -0.0528.
In the case of AATAATCC, the “PBM E-score” value was 0.154.
In the case of AACTCTGG, the “PBM E-score” value was -0.118.
In the case of ACCCGCCC, the “PBM E-score” value was -0.0901.
GTACCTAA was tested, and the “PBM E-score” value was 0.131.
With CGGGCTGC the “PBM E-score” value was -0.193.
In the case of CTGGCTAC, the “PBM E-score” value was -0.172.
With GATTTATA the “PBM E-score” value was 0.174.
In the case of AACCCTGC, the “PBM E-score” value was -0.154.
For ATGTGTCA, the “PBM E-score” value was 0.261.
CACATATG was tested, and the “PBM E-score” value was 0.135.
In the case of ACAATCCT, the “PBM E-score” value was 0.0381.
With CGGCACCA the “PBM E-score” value was -0.0392.
With GAGACGGC the “PBM E-score” value was -0.31.
With CTATGTAC the “PBM E-score” value was 0.401.
In the case of AACTAATC, the “PBM E-score” value was -0.04.
For AATACCAA, the “PBM E-score” value was 0.129.
With GGATCAGA the “PBM E-score” value was -0.151.
With GATTAAGA the “PBM E-score” value was 0.0797.
AGGAAAAT was tested, and the “PBM E-score” value was -0.00136.
With ATTACCAC the “PBM E-score” value was 0.219.
For AATATATC, the “PBM E-score” value was 0.149.
With GAAGCTTA the “PBM E-score” value was 0.135.
In the case of AACTGACA, the “PBM E-score” value was 0.148.
With GAACGGTC the “PBM E-score” value was -0.304.
TCTTTTCA was tested, and the “PBM E-score” value was -0.00632.
With AAGCCATA the “PBM E-score” value was -0.233.
In the case of ACGCTCCC, the “PBM E-score” value was -0.0805.
With ACCGGAGT the “PBM E-score” value was -0.0629.
GGCTTTAC was tested, and the “PBM E-score” value was 0.201.
For AATAGACA, the “PBM E-score” value was 0.151.
For AAATTGCG, the “PBM E-score” value was 0.132.
CTCTATGA was tested, and the “PBM E-score” value was -0.11.
In the case of AGGAGAAA, the “PBM E-score” value was -0.146.
GACCACTA was tested, and the “PBM E-score” value was -0.0367.
GTGTACAA was tested, and the “PBM E-score” value was 0.439.
With ATGAACTC the “PBM E-score” value was -0.0467.
With ATCAGTCA the “PBM E-score” value was 0.057.
For CTCTTAGC, the “PBM E-score” value was -0.103.
For GAATAACA, the “PBM E-score” value was 0.39.
For ACAAGTCC, the “PBM E-score” value was 0.0646.
For AGGTTTGG, the “PBM E-score” value was -0.14.
ATCTAGAT was tested, and the “PBM E-score” value was -0.0873.
For CAGTGCCA, the “PBM E-score” value was -0.293.
For GAAGGGTC, the “PBM E-score” value was -0.202.
In the case of GCCCTTAA, the “PBM E-score” value was -0.0553.
In the case of AGCGGCGC, the “PBM E-score” value was -0.161.
CGACATCA was tested, and the “PBM E-score” value was 0.106.
With GGGAGCCA the “PBM E-score” value was -0.361.
In the case of AGATAGTA, the “PBM E-score” value was 0.0708.
GTGATCCA was tested, and the “PBM E-score” value was -0.16.
With GAACTACA the “PBM E-score” value was 0.197.
With CACTCGTC the “PBM E-score” value was -0.107.
With AGACATAT the “PBM E-score” value was 0.0652.
With AAAGCCGG the “PBM E-score” value was -0.0314.
For CATCACAA, the “PBM E-score” value was 0.248.
For TATCGCCA, the “PBM E-score” value was -0.128.
With ATAAGTTC the “PBM E-score” value was 0.0715.
In the case of CCCGACGG, the “PBM E-score” value was -0.133.
For TATCGACA, the “PBM E-score” value was 0.163.
With ACAAGTCT the “PBM E-score” value was 0.176.
For CTAAGGGA, the “PBM E-score” value was -0.294.
In the case of TACGTGAA, the “PBM E-score” value was 0.227.
With AATGCCTG the “PBM E-score” value was -0.234.
For AGCGGTCC, the “PBM E-score” value was -0.183.
In the case of CTACTCAG, the “PBM E-score” value was -0.0882.
For GCGGCCTA, the “PBM E-score” value was -0.221.
For CATGCCAC, the “PBM E-score” value was 0.112.
In the case of AACAAGAG, the “PBM E-score” value was 0.0954.
CTTTCACA was tested, and the “PBM E-score” value was 0.238.
With AAAATTAA the “PBM E-score” value was 0.207.
In the case of AAGATGCA, the “PBM E-score” value was 0.0825.
CCGAGTCC was tested, and the “PBM E-score” value was -0.142.
In the case of TAATTGAA, the “PBM E-score” value was 0.204.
With CCAGCGCC the “PBM E-score” value was -0.337.
For AGACGAAA, the “PBM E-score” value was -0.00747.
With GATCCCGC the “PBM E-score” value was -0.331.
With CGAGATCG the “PBM E-score” value was -0.0661.
